Data published in the RNAGym collection of RNA variant scans (doi:10.7554/elife.90254).
The source gives no read counts; variants with many changes may rest on few reads.

B1: OR4K15 (parent)
chain: GUUAACGGUCAUAGGCCAUGGAAACUAGGAGCACCAUUUCGCUGCCAGUGAAGAAAUGAACAAAGAAAAUCUGGGCCAGGCAGGCAUCAAAAGAAAUAGUCUUGCGCUCAACCAGAAAGUCUGUAAUCAUUUUAAGGGUA

Variants of: B1
Test: self-cleavage, relative activity (ratio to wild type); higher = more cleavage; in vitro, sequencing; the parent is a self-cleaving ribozyme
For A11U U49A U132C, the self-cleavage was 1.18. For A11G A66G A118U, the self-cleavage was 0.7. In the case of A11G A30G A52G A55G G79A, the self-cleavage is reported as 0.18. Work on U12C A23G A63G A78G A94G A135U yielded a self-cleavage of 0.69. For A11G U43C A64U A96G, the self-cleavage was 1.27. A11U G83U U132C gave a self-cleavage of 0.35. In the case of A11G A24G U103C, the self-cleavage is reported as 0.31. Variant A11G C32U U43C A116G has a self-cleavage of 0.8. A11C U37C A55G U87C A96G A116G U122C showed a self-cleavage of 0.87. A11C U39C A91G gave a self-cleavage of 2.11. A11C A23G U26C U38A A60G A66G gave a self-cleavage of 1.1. A11G A82U A114G A126U showed a self-cleavage of 0.03. A11G A22U U37C gave a self-cleavage of 0.81. Variant A11G U49C A52G A54C has a self-cleavage of 1.57. Work on A11G U39C A56G yielded a self-cleavage of 0.47. For A11G A22C A47G A54G A59U, the self-cleavage was 0.51. Work on A11G U12C U38C U102C yielded a self-cleavage of 0.55. In the case of U12A A52C A63G, the self-cleavage is reported as 0.07. In the case of A11C A68G U103C U131C, the self-cleavage is reported as 0.04. In the case of U12A U39A A47U G80A U100C U127A, the self-cleavage is reported as 0.54. A11G A22G U72C gave a self-cleavage of 0.37. Work on U12C A13G U43C A95G yielded a self-cleavage of 1.38. Work on U12A A68G A135G yielded a self-cleavage of 1.18. In the case of A11U A95G A111G A125G, the self-cleavage is reported as 0.04. Variant A11G A36C U43C A51G A60G A67C A94G A126G has a self-cleavage of 0.62. Work on A11U U12C A82G U100C yielded a self-cleavage of 1.33. U12C A13G A51G A54G showed a self-cleavage of 0.98. Work on A11G U12C A116G yielded a self-cleavage of 0.85. U12C A13C C61U A91G showed a self-cleavage of 1.43. For A11G A13G A62U G83U A110U A116G, the self-cleavage was 0.41. With A11G G93A A114G the self-cleavage was 0.38. A11G A30G U102A gave a self-cleavage of 1.13. For A11G G79A A94G A116U A117G, the self-cleavage was 0. A11G C17U A30G A52U A67G showed a self-cleavage of 0.9. With A11U U19C A22G A30G the self-cleavage was 1.53. A11G A78G A90G U132C showed a self-cleavage of 0.29. Work on A11G A63U A68G yielded a self-cleavage of 0.71. A11U A91G A96G A118G showed a self-cleavage of 1.36. U12C A18G A118G gave a self-cleavage of 2.96. Work on A11U A94G C109U A125U yielded a self-cleavage of 0.61. A11G U39C A91G A96G gave a self-cleavage of 1.36. A11G A54G G75A A111G A117U showed a self-cleavage of 0.03. With U12A A22G A66U U97A the self-cleavage was 1.51. For A11U A94G A96G A118G, the self-cleavage was 1.2. In the case of A11G U87C U108A A110U, the self-cleavage is reported as 0.01. With A11G A36U A59G A111G the self-cleavage was 0.07. A11G A22G A62G showed a self-cleavage of 0.41. With A11G A55G U100C U102A U108C A116G the self-cleavage was 0. Work on A11G A24G A55G U72A C81U U103C A114U yielded a self-cleavage of 0.17. In the case of C10U U49A A54G A60C A68G, the self-cleavage is reported as 0.52. A11G A90G A129U showed a self-cleavage of 0.83. A11G U37C A60U showed a self-cleavage of 1.05. With A11U U37C U49C A111C the self-cleavage was 0.01. Variant U12C A18G U103C U122C A140G has a self-cleavage of 0.94. Work on U12A U39C U49C yielded a self-cleavage of 0.98. Variant U12A A27G A78G A91G A116G has a self-cleavage of 0.14. A11U A56C A95G gave a self-cleavage of 2.05. In the case of A11G U43C A67G A117G, the self-cleavage is reported as 1.1. Variant A11U C45G A116U A140G has a self-cleavage of 0.11. A11G A13G A24G A33U A47G A110G G136A showed a self-cleavage of 0.54. A11G A86C A110G gave a self-cleavage of 0.06. For A11U U38A G137U, the self-cleavage was 1.57. Variant A11G A23G A24G U43C has a self-cleavage of 1.04. Work on A11G U43C A86G yielded a self-cleavage of 0.35. Variant A11G A94U U130C U133C has a self-cleavage of 1.13. Variant A11G A78C U122A has a self-cleavage of 0.13. A11G A23G A55G showed a self-cleavage of 1.29. For U12A A69G U70A, the self-cleavage was 0.37. In the case of A11G A86G A96G, the self-cleavage is reported as 1.29. Variant A11G A36U A140G has a self-cleavage of 1.29. Work on A11U U12A A47G U57C yielded a self-cleavage of 0.33. Variant A11G U39C U87A G138U has a self-cleavage of 1.16. A11G A22G U97C A117G gave a self-cleavage of 0.35. In the case of A11G A36G A86G U87C U100C, the self-cleavage is reported as 1.41. For A11G A91G U100A U102C, the self-cleavage was 1.64. Work on A11G C35A A94G yielded a self-cleavage of 1.07. A11U U19C A82C A129G gave a self-cleavage of 0.09. In the case of A11U A22G A33G A62G, the self-cleavage is reported as 0.98. Work on A11G A60G A82G A118G yielded a self-cleavage of 0.1. Work on A11G U37C A63G A94U U97C yielded a self-cleavage of 0.83. U12A A52G A110G U120C gave a self-cleavage of 0.03. With A11G A18U A24U U57C A90G the self-cleavage was 0.85. Work on A11G A63G G123U U133C yielded a self-cleavage of 1.78. Work on A11U A24G A62G A92G yielded a self-cleavage of 1.24. Variant A11G A54G A69G has a self-cleavage of 0.39. For A11G A51U U87C U108C A118U U127C U132C, the self-cleavage was 0. Work on A11G U120C A135G yielded a self-cleavage of 0.28. U12A A56G A92G U127C U139A showed a self-cleavage of 1.42. For A11G U38C A68G, the self-cleavage was 0.21. A11G A62U U70A U87C showed a self-cleavage of 0.69. C10A U26C U39C A66G G75C A92G gave a self-cleavage of 0.06. With A11G A33G A52G G79A U87C U122C the self-cleavage was 0.04. A11G C42A U130G showed a self-cleavage of 0.68. For A11U U19C A118G, the self-cleavage was 1.03. In the case of A11G A64G A67U, the self-cleavage is reported as 0.54. In the case of A11U A51G A62G, the self-cleavage is reported as 1.18. With A11U C81A U87C A126G the self-cleavage was 0.1. A11G U19C A90G gave a self-cleavage of 0.82. Work on A11G A59G A62G A91G yielded a self-cleavage of 0.19. With A11G A111G A117C U122C U131C the self-cleavage was 0.2. A11U A56C U70C showed a self-cleavage of 0.41. With U12A A60G A116U the self-cleavage was 0.16. In the case of A11G A23U U87C, the self-cleavage is reported as 0.87. With A11G A23G U37C A62G A96G A114G the self-cleavage was 0.28. Variant A11G A78G A89G has a self-cleavage of 0.36. Work on U12C A22G A30G U39C A67G yielded a self-cleavage of 1.01. A11G A54U C128U gave a self-cleavage of 0.97. Variant A11U A59G A89C has a self-cleavage of 0.45. In the case of A11U U120G G137U, the self-cleavage is reported as 2. For U12C A13U U49C U139A, the self-cleavage was 0.39. A11C A24G U72C A82G gave a self-cleavage of 0.26. Variant A11G A33G A56G U122A has a self-cleavage of 0.36. C10A A92G A95U A111G showed a self-cleavage of 0.05. For A11G A66G A117G, the self-cleavage was 1.22. Variant A11U U120C U131C has a self-cleavage of 0.72. Work on A11G A63G A94U U122A A125G yielded a self-cleavage of 0.45. In the case of A11G U38C A69G A95U A96G U100C A129G, the self-cleavage is reported as 0.16. For A11G A24G A51G A68G A95G, the self-cleavage was 1.51. Variant U12C A23U G28A C35U U49C U108C has a self-cleavage of 0.05. For U12A G80A U120C, the self-cleavage was 0.26. Variant A11G A47G A95G has a self-cleavage of 1.34. Work on U12A A63G U102C yielded a self-cleavage of 1.29. A11G A54G A78G showed a self-cleavage of 0.37. Variant C10U A63G A118G has a self-cleavage of 0.4. For A11U A24G C61U, the self-cleavage was 1.26. For A11G A23G A36G U72C, the self-cleavage was 0.09. For U12C A13U G44A A64G A86U A126G, the self-cleavage was 0.26. A11U A51G U122C U131C showed a self-cleavage of 1.08. Work on A11G U19C U103A yielded a self-cleavage of 0.5. For A11G A47G U49C U131C, the self-cleavage was 0.28. For A11G A36U U39A A52G A125G U139C, the self-cleavage was 0.58. With A11U A54U A82U A91G U97C A125G A140G the self-cleavage was 0.01. Variant A11G A36G C85U has a self-cleavage of 1.26. With A11G A23G A67U the self-cleavage was 1.23. Variant U12A A110G A117G has a self-cleavage of 0.35. A11G U37C A129U gave a self-cleavage of 0.71. In the case of A11G U39C U103C, the self-cleavage is reported as 0.61. A11G A51U A110G showed a self-cleavage of 0.21. Work on A11G G20U A47G A62G yielded a self-cleavage of 0.43. Variant A11C U108C U130C has a self-cleavage of 0. A11G A23G U43C A82U A92G U100C A125G showed a self-cleavage of 0.14. In the case of A11C A36U G73U, the self-cleavage is reported as 0.25. With A11G A18G U70C A92G the self-cleavage was 0.75. A11G A24G A30U U122C showed a self-cleavage of 0.64. In the case of A11C A22G U108C, the self-cleavage is reported as 0.01. Work on U12A A52G A89U A110U yielded a self-cleavage of 1.76. Work on A11U A22G A62G A94G yielded a self-cleavage of 1.26. With A11U A55G U100C U108C the self-cleavage was 0.02. With A11G A18U A23G U122A the self-cleavage was 0.44. A11G U19C C76U A98U A126G gave a self-cleavage of 0.03. Variant A11G U49A A111G U132A has a self-cleavage of 0.09. A11G A36U U87C A95C U100C U103C U108C U130A showed a self-cleavage of 0. For C10U C32U U87C, the self-cleavage was 1.56. Variant U12A A30U G53U C77G A114G has a self-cleavage of 0.1. With A11U A23G U87A A114C U127C the self-cleavage was 0.02. U12A U122C A129G showed a self-cleavage of 1.42. C10U U57A A135U gave a self-cleavage of 0.91. Work on U12C A13G A69G A91G yielded a self-cleavage of 0.82. For A11U A56G U124C G137A, the self-cleavage was 1.08. In the case of U12A A62G A92G, the self-cleavage is reported as 1.28. Work on U12A A13G A117G U122C yielded a self-cleavage of 0.81. U12C A22U A92G A118G showed a self-cleavage of 0.48. For U12A A22G U37C A110G, the self-cleavage was 0.14. Work on U12C A22G A30G A62G yielded a self-cleavage of 1.32. A11G A67G A94G U108C A117G A118G U133A showed a self-cleavage of 0. A11G A54G U57C A82U A125G gave a self-cleavage of 0.09. A11C A56G A82G A125G showed a self-cleavage of 0.23.
